This note sets out measurements from article PMC4336329 (PLoS ONE, 2015).

Hit rate of the full screen: of about 310,000 compounds, about 14,000 (4.5%) showed an effect of 50% or more. Effects have a minus sign here. The list shows a part of the results.
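Note: peak tail current of the secondary pulse compared with the same well before compound.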

Chain of human ether-à-go-go-related gene (hERG) potassium channel (Q12809 whole entry, looked up): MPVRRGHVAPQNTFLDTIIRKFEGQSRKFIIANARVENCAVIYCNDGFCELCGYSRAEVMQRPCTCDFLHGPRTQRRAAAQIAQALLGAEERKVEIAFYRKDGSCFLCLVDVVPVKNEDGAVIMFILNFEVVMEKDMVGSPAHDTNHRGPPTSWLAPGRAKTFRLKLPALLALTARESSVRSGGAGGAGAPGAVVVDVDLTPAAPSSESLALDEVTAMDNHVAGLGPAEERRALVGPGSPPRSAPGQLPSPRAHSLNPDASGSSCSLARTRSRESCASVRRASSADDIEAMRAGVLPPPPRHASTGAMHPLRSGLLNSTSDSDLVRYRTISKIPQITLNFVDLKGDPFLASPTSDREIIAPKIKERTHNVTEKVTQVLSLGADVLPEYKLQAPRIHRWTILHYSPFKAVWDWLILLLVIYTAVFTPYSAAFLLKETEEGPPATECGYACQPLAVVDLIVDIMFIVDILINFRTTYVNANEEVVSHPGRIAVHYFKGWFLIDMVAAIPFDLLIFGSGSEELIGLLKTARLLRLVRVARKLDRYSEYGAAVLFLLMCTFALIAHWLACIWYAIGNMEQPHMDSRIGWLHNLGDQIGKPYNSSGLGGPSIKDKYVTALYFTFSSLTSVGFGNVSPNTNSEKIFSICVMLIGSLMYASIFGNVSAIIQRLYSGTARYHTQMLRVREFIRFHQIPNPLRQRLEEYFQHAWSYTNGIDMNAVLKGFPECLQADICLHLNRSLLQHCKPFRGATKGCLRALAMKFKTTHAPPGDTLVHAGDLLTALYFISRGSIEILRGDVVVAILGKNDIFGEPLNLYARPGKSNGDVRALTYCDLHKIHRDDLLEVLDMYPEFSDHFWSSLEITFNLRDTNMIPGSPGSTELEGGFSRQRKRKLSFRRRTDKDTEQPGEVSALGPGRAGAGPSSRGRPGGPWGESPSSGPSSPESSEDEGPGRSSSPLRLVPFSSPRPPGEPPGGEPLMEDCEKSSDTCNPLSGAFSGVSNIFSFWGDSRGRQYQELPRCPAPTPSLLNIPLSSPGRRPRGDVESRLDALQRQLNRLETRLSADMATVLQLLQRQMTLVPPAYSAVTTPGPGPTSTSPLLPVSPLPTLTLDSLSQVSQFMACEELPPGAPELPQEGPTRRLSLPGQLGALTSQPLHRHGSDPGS

The test has as its target human ether-à-go-go-related gene (hERG) potassium channel (human, UniProt Q12809). The test can be described thus: primary screen, population patch clamp on CHO cells stably expressing hERG.
For the molecule `Cc1ccc(NC2=NCCC2)cc1Cl`, the “hERG current change (%, negative = inhibition) at 10uM” value came out at 1.29%. As to `CCN1CCc2c(sc(NC(=O)c3cc4ccccc4cc3OC)c2C(N)=O)C1.Cl`, the “hERG current change (%, negative = inhibition) at 10uM” value was -46%.

For the molecule `C/C(=C/C=C/[C@@H](C)C(=O)O)[C@H]1CN[C@H](C(=O)O)[C@H]1CC(=O)O`, the “hERG current change (%, negative = inhibition) at 10uM” value was 2.57%.

Turning to `N#Cc1c2n(c3c(=O)n(Cc4ccc(Cl)cc4)cnc13)CCCCC2`, the “hERG current change (%, negative = inhibition) at 10uM” value was -23.7%.

Turning to `Br.CC1=CS(=O)(=O)CC1Sc1nc2ccccc2[nH]1` (stereo not drawn), the “hERG current change (%, negative = inhibition) at 10uM” value is on record as 1.22%. The result for `O=C(CC1SC(N2CCCCC2)=NC1=O)Nc1ccc(C(=O)O)cc1` (stereo not drawn) reads 22.1%; that for `O=C1CCCN1c1ccc(Br)cc1`, 5.28%; that for `CC(=O)Nc1c2c(nn1-c1ccc(F)cc1)CSC2`, 13.8%. Next, `O=C(NN=C1CCCCCC1)c1cn(-c2ccccc2)nc1-c1ccccc1`: -2.15%; `CCN1CCN(C(=O)CN(CC)S(=O)(=O)c2ccc(Cl)cc2)CC1`: -13.3%.

As to `COc1cc(O)c(C(CC(=O)N2CCOCC2)c2ccc3c(c2)OCO3)c(OC)c1` (stereo not drawn), the “hERG current change (%, negative = inhibition) at 10uM” value is given as 7.98%. For the molecule `Cc1cc(C)nc(/N=C(\NC(=O)C(C)(C)C)Nc2ccccc2)n1`, the “hERG current change (%, negative = inhibition) at 10uM” value amounted to 18.6%. Turning to `CC(=O)n1c2c(c3ccccc31)OC(N)=C(C#N)C2c1ccc(C(C)C)cc1` (stereo not drawn), the “hERG current change (%, negative = inhibition) at 10uM” value was 4.51%.

Consider `Cc1nn(CC(O)Cn2cnc3c2c(=O)n(C)c(=O)n3C)c(C)c1Br` (stereo not drawn), for which the “hERG current change (%, negative = inhibition) at 10uM” value is on record as -8.63%.

Consider `CC1(C)Oc2ccc3ccc(=O)oc3c2/C(=C/O)C1=O`, for which the “hERG current change (%, negative = inhibition) at 10uM” value is 10.5%.

Consider `CCCCN(CC)C(=O)c1cc2cc3ccc(Cl)cc3nc2o1`, for which the “hERG current change (%, negative = inhibition) at 10uM” value is on record as -9.93%. For `N#C/C(=C\c1ccccc1)c1n[nH]c(Cn2cncn2)n1`, the “hERG current change (%, negative = inhibition) at 10uM” value is given as 3.6%. As to `CC(=O)[C@H]1[C@H](CCc2ccccc2)NC(=O)N(Cc2ccccc2)[C@@H]1C`, the “hERG current change (%, negative = inhibition) at 10uM” value is -17.8%. On to `O=C(O)CN1C(=O)/C(=C2\SC(=S)N(C(Cc3ccccc3)C(=O)O)C2=O)c2ccccc21` (stereo not drawn), for which the “hERG current change (%, negative = inhibition) at 10uM” value came to 2.15%.

For `Cc1ccccc1C1=NCC(=O)N(CC(=O)NCc2ccco2)c2sc3c(c21)CCCC3`, the “hERG current change (%, negative = inhibition) at 10uM” value is -32.8%.

Consider `COc1ccccc1CNC(=O)CCCN1C(=O)COc2ccc(C)cc21`, for which the “hERG current change (%, negative = inhibition) at 10uM” value is -26%. Turning to `CCCNC(=O)C1CN(S(=O)(=O)c2ccccc2)CCN1S(=O)(=O)c1ccccc1` (stereo not drawn), the “hERG current change (%, negative = inhibition) at 10uM” value is -7.34%. Consider `Cc1cc(C)c(C#N)c(SCC(=O)N2CCCCC2)n1`, for which the “hERG current change (%, negative = inhibition) at 10uM” value was 17%. The result for `CC1CN(CC(=O)Nc2ccc(Br)cn2)CC(C)O1` (stereo not drawn) reads 17.9%; that for `O=[N+]([O-])c1ccc(-n2cccc2/C=N/Nc2nc(N3CCCCC3)nc(N3CCCCC3)n2)cc1`, 15.1%; that for `CCOC(=O)C1CCCN(CC(=O)Nc2nc(-c3ccccc3)cs2)C1` (stereo not drawn), -27.3%. Consider `CN(Cc1ccccc1)C1CCCN(C(=O)c2ccc(Cl)s2)C1` (stereo not drawn), for which the “hERG current change (%, negative = inhibition) at 10uM” value was -30.4%. The result for `O=C(c1cc(-c2ccc(Cl)cc2Cl)on1)N1CCCCCC1` reads 0.184%; that for `Nc1cc(=O)[nH]c(SCC(=O)N2CCCCC2)n1`, 40.8%; that for `CC(C)N1CCC(N2CCN(Cc3cc(F)ccc3-n3cccn3)CC2CCO)CC1` (stereo not drawn), -8.1%. The result for `COCCN(CC(=O)Nc1cccc(C)c1C)C(=O)c1cc2c(s1)CCC2` reads -3.94%; that for `CC(/C=C/c1ccccc1)=N/O`, -0.00622%; that for `CC(C)c1nnc(NC(=O)CCC(=O)Nc2ccccc2)s1`, 3.52%. Next, `CCOc1ccc(CCNC(=O)CS(=O)Cc2nc(-c3ccccc3Cl)oc2C)cc1OCC` (stereo not drawn): -10.7%; `CC(=O)CCc1c(C)nc2ccc(C(=O)O)cc2c1Cl`: 23.9%. With `CCc1ccc(-c2csc(NC(=O)Oc3ccccc3)n2)cc1`, the “hERG current change (%, negative = inhibition) at 10uM” value is on record as 0.389%. The result for `S=C(Nc1ccc(Cl)cc1)NN1CCOCC1` reads -0.582%; that for `Cc1ccc(S(=O)(=O)N2CCCCC2)cc1NC(=O)Cc1c[nH]c2ccccc12`, -14.4%. Turning to `O=C(CCCc1ccccc1)NCCc1ccc(F)cc1`, the “hERG current change (%, negative = inhibition) at 10uM” value is given as 4.27%. Turning to `Cc1sc2nc(CC(=O)NN)[nH]c(=O)c2c1C`, the “hERG current change (%, negative = inhibition) at 10uM” value was found to be 4.87%. Next, `CC(C)COc1ccc(C(=O)Nc2cc(S(=O)(=O)N3CCOCC3)ccc2N2CCCC2)cc1`: -0.0415%. Turning to `O=C(C[n+]1ccccc1)N/N=C/c1ccc(O)cc1.[Cl-]`, the “hERG current change (%, negative = inhibition) at 10uM” value is 21.6%.

As for `O=C(NNC(=O)c1ccccc1Cl)c1cccs1`, the “hERG current change (%, negative = inhibition) at 10uM” value stood at 11.6%. Turning to `Cc1cc(C)n(S(=O)(=O)Cc2ccccc2)n1`, the “hERG current change (%, negative = inhibition) at 10uM” value is 2.27%. In the case of `Cc1csc(NC(=O)c2cc(-c3ccncc3)nc3ccccc23)n1`, the “hERG current change (%, negative = inhibition) at 10uM” value is recorded as -13.9%.

As to `COc1ccc(NC(=O)c2cn(CCC#N)nc2-c2ccccc2)cc1`, the “hERG current change (%, negative = inhibition) at 10uM” value is reported as -7.59%. The result for `CC(C)(C)OC(=O)N1CCN(C(=O)c2[nH]cnc2C(=O)N[C@@H](Cc2ccccc2)C(=O)OCc2ccccc2)CC1` reads -6.94%. Regarding `COc1cc(CCC(=O)NCc2ccc(S(N)(=O)=O)cc2)cc(OC)c1OC`, the “hERG current change (%, negative = inhibition) at 10uM” value came to 21.1%. Turning to `O=S(=O)(c1ccccc1F)N1CCN(CCc2ccccc2)CC1`, the “hERG current change (%, negative = inhibition) at 10uM” value is on record as -5.81%. As for `CC(=O)c1ccc(NC(=O)c2ccc3c(=O)n4c(nc3c2)CCCCC4)cc1`, the “hERG current change (%, negative = inhibition) at 10uM” value was -5.23%. For `Cc1nc(CN2CCC(c3ccccc3)CC2)cc(=O)[nH]1`, the “hERG current change (%, negative = inhibition) at 10uM” value stood at 19.5%. For `CCOC(=O)N1CCC(N(CCN(C)C)C(=S)Nc2ccccc2C)CC1`, the “hERG current change (%, negative = inhibition) at 10uM” value is 3.33%. On to `CCOC(=O)c1c(C)nc2sc3c(=O)n(-c4ccc(OC)cc4)cnc3c2c1-c1ccc(OC)cc1`, for which the “hERG current change (%, negative = inhibition) at 10uM” value was 5.33%.

In the case of `O=C(CSc1nc2ccccc2[nH]1)N1CCN(c2ccccc2)CC1`, the “hERG current change (%, negative = inhibition) at 10uM” value was -0.235%. With `CCOP(=O)(OCC)c1nc(Cc2ccccc2)oc1NCc1ccccc1`, the “hERG current change (%, negative = inhibition) at 10uM” value stood at 2.15%. Regarding `O=C(NCCc1ccccc1)C(=O)N/N=C/c1ccccc1C(F)(F)F`, the “hERG current change (%, negative = inhibition) at 10uM” value was found to be 6.29%. With `Cc1cccc(CSc2nnc3c(n2)[nH]c2ccccc23)c1`, the “hERG current change (%, negative = inhibition) at 10uM” value worked out at 13.6%.
